Experimental findings from patent US20220339099A1 (published 2022) are described below.

For experiment [1], the target named is T1, IL-1R1 in fresh rat whole blood (rat, UniProt Q02955 20-576).
T1 sequence (looked up): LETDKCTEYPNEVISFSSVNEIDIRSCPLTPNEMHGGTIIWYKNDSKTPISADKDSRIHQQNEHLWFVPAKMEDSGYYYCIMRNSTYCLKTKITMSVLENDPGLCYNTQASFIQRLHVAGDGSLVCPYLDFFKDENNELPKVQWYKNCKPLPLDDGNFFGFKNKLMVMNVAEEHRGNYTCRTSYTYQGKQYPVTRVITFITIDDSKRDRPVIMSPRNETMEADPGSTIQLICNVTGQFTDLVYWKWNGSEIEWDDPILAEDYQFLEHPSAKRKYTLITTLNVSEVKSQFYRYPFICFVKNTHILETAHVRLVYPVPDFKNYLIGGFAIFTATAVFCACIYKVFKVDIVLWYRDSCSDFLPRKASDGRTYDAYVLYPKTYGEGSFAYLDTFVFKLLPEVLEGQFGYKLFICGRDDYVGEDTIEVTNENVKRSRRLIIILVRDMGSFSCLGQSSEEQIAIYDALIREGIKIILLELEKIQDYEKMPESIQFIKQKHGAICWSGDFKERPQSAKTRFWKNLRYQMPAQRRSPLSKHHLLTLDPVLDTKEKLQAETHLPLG
Briefly: cell-based or functional assay.

The target of experiment [2] is T2, human IL-1 type 1 receptor (IL-1R1) (human, UniProt P14778 18-336, limits assumed).
T2 construct: SPR reagent; also called IL-1RI; interleukin-1 type I receptor
T2 sequence (looked up): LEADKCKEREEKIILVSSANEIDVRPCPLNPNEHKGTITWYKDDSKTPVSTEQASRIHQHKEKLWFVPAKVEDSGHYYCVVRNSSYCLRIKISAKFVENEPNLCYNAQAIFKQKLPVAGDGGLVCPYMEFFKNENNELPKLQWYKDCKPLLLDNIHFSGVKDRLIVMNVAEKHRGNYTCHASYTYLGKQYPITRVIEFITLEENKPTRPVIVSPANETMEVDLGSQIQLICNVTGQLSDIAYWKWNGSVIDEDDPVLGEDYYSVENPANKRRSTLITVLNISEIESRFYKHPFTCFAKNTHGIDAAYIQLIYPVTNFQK
Briefly: surface plasmon resonance.

B1: ALTA-2530 recombinant human interleukin 1 receptor antagonist (rhIL-1Ra; anakinra) (ligand)
chain: not shown
notes: mature; also called OSP-101
As to B1, in experiment [1], the “IC50, whole blood IL-6 release assay in rats” value stood at 0.399 µg/mL. In experiment [2], this molecule returned a Kd of 7.43 pM, a koff of 1.8e-05 s⁻¹ and a kon of 2.46e+06 M⁻¹ s⁻¹.
